# Laboratory results published in PubChem BioAssay AID686979 (National Center for Advancing Translational Sciences (NCATS), 2013).
# Among all 420,000 compounds or so, about 50,000 (12%) were called active. Inconclusive means that the source gave no clear call. Such entries were picked first, then a sample of the others. The call rests on the fitted dose curve; in most records, active means well fitted inhibition curve with a large enough effect; inconclusive means small, poorly fitted or top-dose-only effect; inactive means flat fitted curve, though single readings scatter. Potencies of inconclusive entries are left out as doubtful fits.
# Assay: qHTS for Inhibitors of human tyrosyl-DNA phosphodiesterase 1 (TDP1): qHTS in cells in presence of CPT; further: nearly all actives have a fitted effect of over 55% in size
# Conditions: chicken DT40 Tdp1-/-;hTDP1 cells + 20 nM CPT, ATP luminescence, 48 h; series mostly up to 46.2 µM
# Method in brief: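 Cell growth measured by CellTiter-Glo luminescence after a minimum 48 h, 37 C compound exposure with 20 nM CPT in Tdp1-knockout DT40 cells stably expressing hTDP1, seeded 400/well; qHTS titration format.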
# Potency means the concentration at half of the fitted maximal effect; tags describe the fitted curve by direction and shape.
row,SMILES,Potency
1,COc1ccc(CNC(=O)c2cnn3c(C)c(Cc4c(F)cccc4Cl)c(C)nc23)cc1,active: 11.6 µM
2,CCOc1ccc(OCc2cccc(C(=O)N3CCCCCC3)c2)cc1,"inconclusive [inhibitor, single point]"
3,COc1ccc(N(C(=O)c2ccc(C(C)(C)C)cc2)S(=O)(=O)c2ccc(Cl)cc2)cc1,"inconclusive [inhibitor, single point]"
4,CC1(C)CC(=O)C=C(c2ccc(COC(=O)c3cc(F)cc(F)c3)cc2)C1=O,"inconclusive [inhibitor, single point]"
5,CCCNC(=O)C1CCN(S(=O)(=O)c2c(C)noc2/C=C\c2ccc(OC)cc2)CC1,inactive
6,O=[N+]([O-])c1ccccc1CN1CCN(Cc2ccccn2)CC1,active: 25.9 µM
7,Cc1ccc(N2CC(NC(=O)c3cccc(Cl)c3)CC2=O)cc1C (centres undefined),"inconclusive [inhibitor, single point]"
8,COc1ccc(/C=C2\SC(N)=NC2=O)cc1Br,"inconclusive [inhibitor, single point]"
9,CCN1C(=O)c2ccccc2Sc2ccc(NC(=O)Nc3cccc([N+](=O)[O-])c3C)cc21,active: 20.6 µM
10,CCC1=C(c2ccc(C)cc2)S(=O)(=O)N=C1N1CCC(C(=O)NCc2ccc(N(C)C)cc2)CC1,active: 18.4 µM
11,O=C(c1cc(COc2ccc(F)cc2Cl)on1)N1CC2C[C@@H]3CC1C[C@H](C2)C3,active: 1.3 µM
12,C/C(=N/NC(=O)c1ccncc1)c1ccc(NC(=O)c2ccccc2)cc1,inactive
13,COc1ccc(C2/C=C\CN(Cc3ccc(N(C)C)cc3)CC(=O)N2Cc2ccc(F)cc2)cc1 (centres undefined),"inconclusive [inhibitor, partial curve]"
14,Cc1cccc(N2CCN(C(=O)c3c(C)nn(Cc4ccccc4Cl)c3C)CC2)c1C,active: 9.2 µM
15,CC(Oc1ccc(Cl)cc1Cl)c1ccnc2nc(N3CCOCC3)nn12 (centres undefined),"inconclusive [inhibitor, single point]"
16,COc1ccc(C2c3c(n(C)c4ccccc34)C(=O)N2CC(=O)Nc2cccc(Cl)c2C)cc1 (centres undefined),"inconclusive [inhibitor, partial curve]"
17,Cc1cccc(N2CCN(C(=O)c3cnc(N4CCCC4)nc3C)CC2)c1C,"inconclusive [inhibitor, single point]"
18,O=C(Nc1ccc(OCc2ccccc2)cc1)c1cccc([N+](=O)[O-])c1,"inconclusive [inhibitor, single point]"
19,O=C(CC1C(=O)NCCN1CC(c1ccccc1)c1ccccc1)NC1CC1 (centres undefined),inactive
